# Measurements from the supplement of paper PMC10681739.
# ± gives the standard deviation of the averaged measurements. Over roughly 4,000 sequences, “arbitrary fluorescence units” has its median near 830; the highest 2% begin near 6,500. The list lacks most of the strong results.
# Target: RUNX1 (UniProt Q01196)
# Experiment: RUNX1 binding intensity (PBM fluorescence), RUNX1 alone (arbitrary fluorescence units); higher = stronger binding
# Conditions: RUNX1 concentration 2 nM; ETS1 concentration 0 nM
# Description: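 gcPBM on 36-bp genomic-derived probes (partner site mutated) containing one RUNX1 site and no ETS1 site. Recombinant human RUNX1 (2 nM) was incubated alone or with ETS1 (25 nM) and detected by anti-RUNX1 antibody fluorescence. Values are medians over 4 replicate spots (not normalised). The probes sit in constant array flanks that are not printed.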
# 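Also: Full-length recombinant human RUNX1 bound to double-stranded DNA microarray spots, detected with an Alexa488-labelled secondary antibody after the anti-RUNX1 primary, read as scanned spot fluorescence.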
# Chain of UniProt Q01196 (Q01196 whole entry): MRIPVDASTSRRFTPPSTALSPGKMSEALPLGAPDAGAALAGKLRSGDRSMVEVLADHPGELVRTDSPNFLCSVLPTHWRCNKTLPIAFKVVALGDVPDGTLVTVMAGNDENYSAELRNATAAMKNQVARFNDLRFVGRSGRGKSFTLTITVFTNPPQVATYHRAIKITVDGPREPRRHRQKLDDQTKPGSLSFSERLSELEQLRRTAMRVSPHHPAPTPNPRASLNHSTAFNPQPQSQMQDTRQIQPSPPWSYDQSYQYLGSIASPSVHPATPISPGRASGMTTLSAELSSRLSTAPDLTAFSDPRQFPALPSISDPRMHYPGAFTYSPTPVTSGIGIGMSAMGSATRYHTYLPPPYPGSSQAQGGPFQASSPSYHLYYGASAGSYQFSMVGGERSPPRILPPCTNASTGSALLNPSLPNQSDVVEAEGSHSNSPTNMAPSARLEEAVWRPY
row,Sequence,RUNX1 binding intensity
1,GGCGTGGTTTCGGCCCCGGCGCAGCTGGATCTGGCA,692
2,AGACGTGGTTACAAAGGTCCCAAGTTCAGGCAGTAA,754
3,CGGCGGCCGCTGCGGGAGCCACAGGCAGTGAAGAGC,748
4,ACCACCCACAGCCGTCTAACATCAATTCCTTCAGAG,1100
5,TGCAACCACAGGGGCGAAGAAGTCAGCAAATGCTGC,746
6,GTCACAGTAAAGAAGGAGCCTCGCCTTAACCGCACC,1260
7,AGGCGGCAGCAAATGACCCCATCCCGCAGCCTGGGC,1040
8,AACCCCAAAACGGAGACACCGGAGCCACAAGCTGAG,810.4 ± 3.3
9,ATTCTGCATCGTGTGCTCTTTCCATGAGACCACAAA,793
10,CGGGACCGCGGGCCGGAGTTTTGGCCGAAGAGGCCG,714
11,AGAAGGGCCACAACCGTCACGTGTTCCTCTTCAGCA,847
12,AGGTTGGGGGAAACCACTAAGAGGACGCAGGGTTAG,972
13,CACTGGCAAGGTGGTTTGAGAACTCCCTCTTTCATC,1040
14,ACTACAATTCCCGGCAGGGACTGCGGCCCAGCGTAC,1290
15,AGGGTTGCGGCAGAGCCATGGACTCCCGGTCCCTGC,744
16,GCAGGCTCGAGCGGTCAAAGCTCTTTCAGGGGGCCC,765
17,GGAGAGCTCCTGCGGTCCAGCCGGCTGACTGATGAG,1000
18,GGGCTATTGTCTCCCCCCCCATGTGACCACAGCCTC,1020

row,Sequence,RUNX1 binding intensity
1,GATGTGGCTTGCCAAAAAAAAGCATAGCCTTGGGTG,726
2,AAGACCGGCCGCAAACCAGCAAGATGGCGTACGGCC,817
3,TGGGCCGGGGAGCAAGGCGGCTCGCGGTTCCTCCAC,672
4,AGAACCACCTCCTCTCAGTAAACCACAGAGACTGTA,1410
5,CAAGTGTACATGTGGTTATAACTTGCTGTGCTGCCT,853
6,GTGGCTTTGTGGTTCCTTGTTGCCTGGGCTGGTCTG,1700
7,ATAGGAATGCTGGATCCCCACCGCTGGCCAGCACAG,724
8,TATTGCCTGTGCACAGAAGCAGCTGGGCCGCAGAGT,700
9,GTGCCGAAACCACCTCTTTCTTTGCTGCCTTCCTCC,1590
10,TAGGCTCCCGCGGTTCGGCCTTGCTCCCTCTGTGAC,763
11,GAGGCAGTGGGTTTACTGTGTAGTTCCTTCTCTGGT,769
12,CAACCCAAGGGGATCTGCTCACTGCGGTGAGGAGGC,737
13,CATGTGGTTATCTCATCGTTTTAAAGGAGGTGGGGA,879
14,GCTCTGCAGCATGTGGCTGTGACCGCAGTGAGGAGC,1580
15,TGTTGACTCAGAAAGATGATGGCTGTGGGGGCTGCA,755
16,GCCAGCCACAGACACCCTGTGCAGCTTGCTCCTTCG,926
17,CCGCCTCCAGAAGAATTCTCTGCGGGCATGTTGCTG,871
